# Reference: the RNAGym collection of RNA variant scans (doi:10.1093/nar/gkz1192)
# The source gives no read counts; variants with many changes may rest on few reads.
# B1: CPEB3 Ribozyme (parent)
# chain: UAACAGGGGGCCACAGCAGAAGCGUUCACGUCGCAGCCCCUGUCAGAUUCUGGUGAAUCUGCGAAUUCUGCUGUAUAUCUC
# Variants of: B1
# Experiment: self-cleavage, relative activity (ratio to wild type); higher = more cleavage; in vitro, sequencing
# In short: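 CPEB3 self-cleaving ribozyme mutant libraries were made by rounds of error-prone PCR, barcoded, and transcribed in vitro with T7 RNA polymerase for 5 hours at 37°C. Cleavage occurred during transcription and a 15 min DNase I step before EDTA stop. RNAs were reverse transcribed with template switching and Illumina-sequenced, with DNA sequencing mapping barcodes to variants. Relative activity is the variant's cleaved/total read fraction divided by wild type's (minimum 5 reads), averaged across three batches.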
row,Variant,self-cleavage
1,A3G U26C U41A U74A,0.67
2,A3G U26C U41C A47G U66A G70A,0.09
3,A3G U26C U41C C71G,0.19
4,A3G U26C U43C U80C,0.27
5,A3G U26C U49C U58C U80A,0.13
6,A3G U26C U51A U76C,0.25
7,A3G U26G A35G C38A A47G,0.26
8,A3G U31A A35U G36C A75U,0.71
9,A3G U31A A64G U78A,0.37
10,A3G U31A A64U,0.13
11,A3G U31A C50G A57G U58A A65U,0.28
12,A3G U31A C59A,0.25
13,A3G U31A G36A U51A G53U,0.08
14,A3G U31A G63U,0.81
15,A3G U31A U48A U74C,0.49
16,A3G U31A U72C,0.5
17,A3G U31C A47G U49G U72C U78C,0.51
18,A3G U31C A57G U72C,0.93
19,A3G U31C A65G,0.58
20,A3G U31C U67C U74C,0.25
21,A3G U31C U72A A77U,0.47
22,A3G U41A A45U A65G U76C,0.4
23,A3G U41A C62G G63A U74C,0.21
24,A3G U41A U49C U69A,0.2

row,Variant,self-cleavage
1,A3G U41A U54A U60C,0.17
2,A3G U41A U58A C59A A64U,0.14
3,A3G U41A U60C U74G U76C,0.12
4,A3G U41A U67A,0.41
5,A3G U41C A64G U69A U78C,0.34
6,A3G U41C A64U,0.56
7,A3G U41C U51C U60C U80A,0.64
8,A3G U41G A45U U54C A57C U72C U78C,0.25
9,A3G U41G A65G U72A U78C,0.1
10,A3G U43A A56G,0.98
11,A3G U43A U69C,0.67
12,A3G U43A U76A,1.11
13,A3G U48C A56U U60C C62G,0.23
14,A3G U48C U67A,0.35
15,A3G U48C U69A,0.34
16,A3G U48C U72A,0.99
17,A3G U48C U74C,0.91
18,A3G U49C C50A U74C,1.04
19,A3G U49C U58G,0.37
20,A3G U51A U60C A75G,0.42
21,A3G U51A U66C,0.11
22,A3G U51C C59G,0.3
23,A3G U51G U72C,1.21
24,A3G U54A A65U U80C,0.38

row,Variant,self-cleavage
1,A3G U54A U60C A64U,0.32
2,A3G U54C A56U U58C U66C U74A A77G,0.11
3,A3G U54C U66C,0.29
4,A3G U60C A77G,0.48
5,A3G U66C A75G,0.3
6,A3G U66C U67C,0.34
7,A3G U66G U78A,0.45
8,A3G U72C U76A,1.15
9,A3U A5G A15G A47U A56G,0.56
10,A3U A5G U25A U43C,0.55
11,A3U A5U A20G A45U U67C U78C,0.41
12,A3U A5U A35U U41C U66C U67C,0.47
13,A3U A13C A35C,0.67
14,A3U A13C U80C,1.18
15,A3U A13G A18C A28G C40U U76A U80C,0.17
16,A3U A13G A18C C40U A45G U76A U80C,0.37
17,A3U A13G C14A U54A U60C A64G,0.21
18,A3U A13G C23U U49C U72G,0.05
19,A3U A13G U26A A47G U51A G61U,0.77
20,A3U A13G U26A U31A C34U U69G,0.16
21,A3U A13G U31A U41C U51A U69A G73A,0.51
22,A3U A13G U41A,0.42
23,A3U A13G U43C U49C,0.07
24,A3U A13U A18U A21G U49C,0.1

row,Variant,self-cleavage
1,A3U A13U C38A,0.33
2,A3U A13U U26A U58C U60A U66C,0.24
3,A3U A15C A35U U67A,0.21
4,A3U A15C G30U,0.35
5,A3U A15G A57G U78C C79G U80C,0.95
6,A3U A15G U41A,0.36
7,A3U A15G U41A A45G A57G U80C,0.03
8,A3U A15U A45G,0.84
9,A3U A15U A45U U69A,0.13
10,A3U A15U U31C G61U U74A,0.39
11,A3U A18C U25C U51A,0.09
12,A3U A18G A28G,0.44
13,A3U A18G G52A U60A,0.33
14,A3U A18G U31C A35G C40A A57G,0.42
15,A3U A18G U51A U60C,0.22
16,A3U A18G U51C U54C U80A,1.22
17,A3U A18G U69A,0.58
18,A3U A18U A20G A28G A35G A65G U80C,0.38
19,A3U A18U U26C A47U,0.26
20,A3U A18U U72A,0.3
21,A3U A20G U48C U51G A64G U74C A75G,0.33
22,A3U A20U U25C U41A A57U C59A U69C,0.07
23,A3U A21C G53U,0.33
24,A3U A21G A47G U51C U67C,0.38

row,Variant,self-cleavage
1,A3U A21G U26A U41A U74C,0.09
2,A3U A28C U31C U60A U76C,0.31
3,A3U A28G U41A U72A,0.12
4,A3U A28G U49A A64G U72A,0.17
5,A3U A28G U51A U78C,0.37
6,A3U A28G U69A U72A,0.16
7,A3U A28G U72A,0.64
8,A3U A35U A56U,0.42
9,A3U A35U U66C U67C,0.19
10,A3U A45U U49C,0.32
11,A3U A47G C59U U74A,1.06
12,A3U A47G G61A U66C U74C,0.29
13,A3U A47G U66C U72A A75G U80A,0.32
14,A3U A56G U69C,0.42
15,A3U A56G U78C,0.86
16,A3U A57G U69C,0.8
17,A3U A57G U74C,0.88
18,A3U A65G U66C U80C,0.47
19,A3U C4U U26C A35G,1.22
20,A3U C11G U72G U80C,0.87
21,A3U C11U U69A U78C U80A,0.21
22,A3U C12G A21C A47G U51C A75G,0.07
23,A3U C12U A56G,1.03
24,A3U C12U G16A U31A U60C,0.12

row,Variant,self-cleavage
1,A3U C12U U25C A35U A57U,0.11
2,A3U C14A C23A C27G A35U C37U U78C,0.07
3,A3U C14U G33A U54C U66C,0.11
4,A3U C17U U49C,0.27
5,A3U C17U U72A,0.71
6,A3U C27A U31A U51C,0.11
7,A3U C29U U51A U60C A64U,0.28
8,A3U C38U A65G U66C C71A U76C,0.21
9,A3U C44A U66A U69C,0.39
10,A3U C44U U66A U67C U72C,0.1
11,A3U C62U G70A,0.17
12,A3U C68U U72A A77U U80A,0.47
13,A3U G6A G9U C37G U60A,0.05
14,A3U G6A U25C A45G U66C,0.23
15,A3U G6A U58A U67C U69A,0.32
16,A3U G6U U54C G55A G61C A64G,0.21
17,A3U G7A U25A,0.45
18,A3U G7C U31A U43C U72C A75G,0.25
19,A3U G7C U54C A56G,0.53
20,A3U G7U A28C U31A U41C U58C,0.05
21,A3U G7U G10A A13U G52U U58C U72C,0.08
22,A3U G7U G24A A35G A65U U72C,0.15
23,A3U G7U G61A,0.09
24,A3U G7U U25C,0.07

row,Variant,self-cleavage
1,A3U G8A G16A U78C,0.54
2,A3U G8A U25C A28G,0.09
3,A3U G8C U51C A57G,0.16
4,A3U G8U A13U G30A U31C U67C A75G,0.04
5,A3U G8U A47G A56G U69G,0.05
6,A3U G8U G19U U58A A64G U78C,0.06
7,A3U G8U U51A U74C A75U,0.09
8,A3U G9A A28U,0.3
9,A3U G9U G33A A56U,0.07
10,A3U G10A A28G A35U U48C U51A,0.2
11,A3U G10C U60C,0.34
12,A3U G10U U51A G70A U80C,0.13
13,A3U G16A U58C,0.33
14,A3U G24A A28G U41A,0.17
15,A3U G24A A57G,0.41
16,A3U G30C U51A U74C U80C,0.16
17,A3U G36C U43C U69C,0.07
18,A3U G46A A65U,0.24
19,A3U G46A G63A U72C,0.09
20,A3U G63A U76C,1.06
21,A3U U25C A47G,0.32
22,A3U U25C U58C C59A A64G,0.28
23,A3U U25G A45G U49A U72A,0.2
